{"source": "patent US20210348119A1", "about": "“COMPOSITIONS AND METHODS FOR CELL CULTURE” (The United States of America as Represented By The …, priority 2018, published 2021)", "key": {"[1]": {"tested_on": "H9 cells", "assay": "qHTS for survival of dissociated H9 cells (CellTiter-Glo, 24 hours after seeding)", "type": "cell-based, human", "conditions": "for Max (maximum activity value from all tested concentrations): H9 cell survival normalized to 10 μM Y-27632 (taken to be 100%); for Efficacy (activity range between predicted activities at zero and infinite doses, Hill equation): H9 cell survival, normalized to 10 μM Y-27632", "description": "FIG. 2 schematically illustrates qHTS procedure.\nAll the screed compounds were received pre-plated at the pre-determined concentrations. […] Curve classification is explained in Huang et al. “Chemical genomics profiling of environmental chemical modulation of human nuclear receptors” Environ. Health. Perspect."}, "[2]": {"conditions": "cited from earlier work"}}, "note": "“And” between values parts separate entries of the source, which are not always exact repeats. Equal entries are not always repeated. For part of these data: At least one read-out could not be matched to a standard name with certainty. For part of these data: At least one compound was matched to its structure with a doubt left."}
{"smiles": "CCS(=O)(=O)N1CC(CC#N)(n2cc(-c3ncnc4[nH]ccc34)cn2)C1", "note": "[Baricitinib]", "values": [{"measurement": "Max (maximum activity value from all tested concentrations)", "setting": "[1]", "value": 102.7, "unit": "%"}, {"measurement": "Efficacy (activity range between predicted activities at zero and infinite doses, Hill equation)", "setting": "[1]", "value": "147 and 114"}]}
{"smiles": "N#CCNC(=O)c1ccc(-c2ccnc(Nc3ccc(N4CCOCC4)cc3)n2)cc1", "note": "[Momelotinib]", "values": [{"measurement": "Max (maximum activity value from all tested concentrations)", "setting": "[1]", "value": "79.24% and 53.99%"}]}
{"smiles": "N#CC[C@H](C1CCCC1)n1cc(-c2ncnc3[nH]ccc23)cn1", "note": "[Ruxolitinib]", "values": [{"measurement": "Max (maximum activity value from all tested concentrations)", "setting": "[1]", "value": "81.17% and 63.7%"}, {"measurement": "Efficacy (activity range between predicted activities at zero and infinite doses, Hill equation)", "setting": "[1]", "value": "89.8 and 80.4"}]}
{"smiles": "CN(C)CCOc1cc(-c2cn[nH]c2)ccc1NC(=O)C1COc2ccccc2O1", "note": "(stereo not drawn) [SR-3677]", "values": [{"measurement": "Max (maximum activity value from all tested concentrations)", "setting": "[1]", "value": 121.4, "unit": "%"}, {"measurement": "Efficacy (activity range between predicted activities at zero and infinite doses, Hill equation)", "setting": "[1]", "value": 115}]}
{"smiles": "C[C@@H](N)[C@H]1CC[C@H](C(=O)Nc2ccncc2)CC1", "note": "[Y-27632]", "values": [{"measurement": "Max (maximum activity value from all tested concentrations)", "setting": "[1]", "value": 112.1, "unit": "%"}, {"measurement": "Efficacy (activity range between predicted activities at zero and infinite doses, Hill equation)", "setting": "[1]", "value": 102}]}
{"smiles": "C[C@@H](N)c1ccc(C(=O)Nc2ccnc3[nH]ccc23)cc1", "note": "[Y-39983]", "values": [{"measurement": "Max (maximum activity value from all tested concentrations)", "setting": "[1]", "value": 116.8, "unit": "%"}, {"measurement": "Efficacy (activity range between predicted activities at zero and infinite doses, Hill equation)", "setting": "[1]", "value": 113}]}
{"smiles": "O=C(COc1ccc(Cl)cc1)N[C@H]1CC[C@H](NC(=O)COc2ccc(Cl)cc2)CC1", "note": "[trans-ISRIB, N,N′-((1r,4r)-cyclohexane-1,4-diyl)bis(2-(4-chlorophenoxy)acetamide)]", "values": [{"measurement": "potency relative to cis-ISRIB", "setting": "[2]", "value": 100, "unit": "fold"}]}
